# Laboratory results: the supplement of paper PMC8728848
# This is one part of the list.
# What was measured:
# Assay in all cases: glycan array binding signal (z-score within array); higher = stronger binding
# Settings in all cases: glycan notation: IUPAC condensed, linker removed
# [1] = target: GalNAc(a1-3)GalNAc(b1-3)Gal(a1-4)Gal(b1-4)Glc
# Summary of the method: (§1)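 The binding signal is a Z-score computed within each array. Data were drawn from 3228 arrays in the Consortium for Functional Glycomics database, restricted to those with a known protein sequence. Scores were averaged over arrays of the same protein sequence at different concentrations or buffers, and over linkers, and negative values can be taken as non-binding.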
# [2] = target: GalNAc(a1-3)GalNAc(b1-3)Gal(a1-4)Gal(b1-4)GlcNAc
# Summary of the method: as §1
# [3] = target: GalNAc(b1-3)Gal
# Summary of the method: as §1
# [4] = target: GalNAc(b1-3)Gal(a1-4)Gal(b1-4)GlcNAc
# Summary of the method: as §1
# [5] = target: GalNAc(b1-3)Gal(a1-4)Gal(b1-4)GlcNAc(b1-3)Gal(b1-4)Glc
# Summary of the method: as §1
# [6] = target: GalNAc(b1-3)Gal(a1-6)Gal(b1-4)Glc
# Summary of the method: as §1
# [7] = target: GalNAc(b1-3)GalNAc
# Summary of the method: as §1
# [8] = target: GalNAc(b1-3)GlcNAc
# Summary of the method: as §1
# [9] = target: GalNAc(b1-4)Gal(b1-4)Glc
# Summary of the method: as §1
# [10] = target: GalNAc(b1-4)GlcNAc
# Summary of the method: as §1
# [11] = target: GalNAc(b1-4)GlcNAc(b1-2)Man
# Summary of the method: as §1
# [12] = target: GalNAc(b1-4)GlcNAc(b1-2)Man(a1-3)[GalNAc(b1-4)GlcNAc(b1-2)Man(a1-6)]Man(b1-4)GlcNAc(b1-4)GlcNAc
# Summary of the method: as §1
# [13] = target: GalNAc(b1-4)GlcNAc(b1-3)GalNAc(b1-4)GlcNAc
# Summary of the method: as §1
# [14] = target: GalNAc(b1-4)GlcNAc6S
# Summary of the method: as §1
# [15] = target: GalNAc(b1-6)GalNAc
# Summary of the method: as §1
# [16] = target: GalNAc3S(b1-4)GlcNAc
# Summary of the method: as §1
# [17] = target: GalNAc3S(b1-4)GlcNAc3S
# Summary of the method: as §1
# [18] = target: GalNAc3S(b1-4)[Fuc(a1-3)]GlcNAc
# Summary of the method: as §1
# [19] = target: GalNAc4S6S(b1-4)GlcNAc
# Summary of the method: as §1
# [20] = target: GalNAc6S(b1-4)GlcNAc
# Summary of the method: as §1
# [21] = target: Glc(a1-4)Glc
# Summary of the method: as §1
# [22] = target: Glc(a1-4)Glc(a1-4)Glc(a1-4)Glc
# Summary of the method: as §1
# [23] = target: Glc(a1-6)Glc(a1-6)Glc
# Summary of the method: as §1
# [24] = target: Glc(a1-6)Glc(a1-6)Glc(a1-6)Glc
# Summary of the method: as §1
# [25] = target: Glc(b1-4)Glc
# Summary of the method: as §1
# [26] = target: Glc(b1-6)Glc
# Summary of the method: as §1
# [27] = target: GlcA(b1-3)Gal
# Summary of the method: as §1
# [28] = target: GlcA(b1-3)GlcNAc
# Summary of the method: as §1
# [29] = target: GlcA(b1-6)Gal
# Summary of the method: as §1
# [30] = target: GlcA3S(b1-3)Gal(b1-4)GlcNAc(b1-2)Man
# Summary of the method: as §1
# [31] = target: GlcA3S(b1-3)Gal(b1-4)GlcNAc(b1-3)Gal(b1-4)Glc
# Summary of the method: as §1
# [32] = target: GlcNAc(a1-3)Gal(b1-4)GlcNAc
# Summary of the method: as §1
# [33] = target: GlcNAc(a1-4)Gal(b1-3)GlcNAc
# Summary of the method: as §1
# [34] = target: GlcNAc(a1-4)Gal(b1-4)GalNAc
# Summary of the method: as §1
# [35] = target: GlcNAc(a1-4)Gal(b1-4)GlcNAc
# Summary of the method: as §1
# [36] = target: GlcNAc(a1-4)Gal(b1-4)GlcNAc(b1-3)Gal(b1-4)Glc
# Summary of the method: as §1
# [37] = target: GlcNAc(a1-4)Gal(b1-4)GlcNAc(b1-3)Gal(b1-4)GlcNAc
# Summary of the method: as §1
binder,measurement,setting,value
GSL-I (Griffonia simplicifolia) (protein) FNLPNFWSDVKDNIIFQGDANTTAGTLQLCKTNQYGNPLQYRAGRALYSDPVQLWDNKTGSVASFYTEFTFFLKITGDGPADGLAFFLAPPDSDVKDAGAYLGLFNKSTATQPSKNQVVAVEFDTWKNTDFPEPSYRHIGINVNSIVSVATKRWEDSDIFSGKIATARISYDGSAKILTVVLSYPDGADYILSHSVDLSKNLPNPIRVGISASTGANQFLTVYVLSWRFSSALQSTSVNAAMGPEIIRTVV,glycan array binding signal (z-score),[1],1.18
same,glycan array binding signal (z-score),[2],-0.493
same,glycan array binding signal (z-score),[3],-0.13
same,glycan array binding signal (z-score),[4],-0.22
same,glycan array binding signal (z-score),[5],-0.176
same,glycan array binding signal (z-score),[6],-0.191
same,glycan array binding signal (z-score),[7],-0.272
same,glycan array binding signal (z-score),[8],-0.26
same,glycan array binding signal (z-score),[9],0.342
same,glycan array binding signal (z-score),[10],-0.089
same,glycan array binding signal (z-score),[11],-0.143
same,glycan array binding signal (z-score),[12],0.254
same,glycan array binding signal (z-score),[13],-0.174
same,glycan array binding signal (z-score),[14],-0.287
same,glycan array binding signal (z-score),[15],-0.335
same,glycan array binding signal (z-score),[16],-0.299
same,glycan array binding signal (z-score),[17],-0.244
same,glycan array binding signal (z-score),[18],-0.214
same,glycan array binding signal (z-score),[19],-0.288
same,glycan array binding signal (z-score),[20],-0.236
same,glycan array binding signal (z-score),[21],-0.173
same,glycan array binding signal (z-score),[22],-0.189
same,glycan array binding signal (z-score),[23],-0.113
same,glycan array binding signal (z-score),[24],-0.154
same,glycan array binding signal (z-score),[25],-0.154
same,glycan array binding signal (z-score),[26],-0.221
same,glycan array binding signal (z-score),[27],-0.068
same,glycan array binding signal (z-score),[28],-0.171
same,glycan array binding signal (z-score),[29],-0.096
same,glycan array binding signal (z-score),[30],-0.27
same,glycan array binding signal (z-score),[31],-0.231
same,glycan array binding signal (z-score),[32],-0.199
same,glycan array binding signal (z-score),[33],-0.209
same,glycan array binding signal (z-score),[34],-0.188
same,glycan array binding signal (z-score),[35],0.112
same,glycan array binding signal (z-score),[36],-0.13
same,glycan array binding signal (z-score),[37],-0.145
